The record followed here is article PMC4242493.

Some of the results follow. The list includes weakly bound sequences.

The target in this assay is MaxL homodimer (UniProt P61244). The assay can be described thus: universal protein-binding microarray (PBM). As to conditions: PBS-based mixture, 10 nM His-tagged protein dimer, 2% milk, 200 ng/uL BSA, 50 ng/uL salmon testes DNA, 0.02% TX-100; detection with Alexa 488 anti-His …; high values mean tight binding; most listed sequences are background and not binding sites; double strand, one strand shown.
Sequence of UniProt P61244 (P61244 whole entry): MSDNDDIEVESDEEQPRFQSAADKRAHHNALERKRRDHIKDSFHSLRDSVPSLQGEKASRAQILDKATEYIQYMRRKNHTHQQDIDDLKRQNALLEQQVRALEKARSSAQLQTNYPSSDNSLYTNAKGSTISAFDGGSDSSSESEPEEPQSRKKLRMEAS
As for CTAACTAG, the binding signal (normalized occupancy) was 0.07.

On to TATAGCGA, for which the binding signal (normalized occupancy) turned out to be 0.0803.

With ACTGATGC, the binding signal (normalized occupancy) was 0.077.

Turning to AGTTCGCA, the binding signal (normalized occupancy) came to 0.0724.

For the sequence ACTAAGGA, the binding signal (normalized occupancy) worked out at 0.0759.

On to TATCCAAA, for which the binding signal (normalized occupancy) was determined as 0.0792.

As to ATTGGAGG, the binding signal (normalized occupancy) is 0.0738.

As for AGCCGGAG, the binding signal (normalized occupancy) was 0.0658.

CGCTCTTC: the binding signal (normalized occupancy) came to 0.0661.

With GGCACACA, the binding signal (normalized occupancy) stood at 0.0798.

As to CTATAGTC, the binding signal (normalized occupancy) came out at 0.0784.

For the sequence CCGAGCAC, the binding signal (normalized occupancy) stood at 0.0759.

Take TTAGAAAA: the binding signal (normalized occupancy) stood at 0.0757.

Turning to ACAACCAA, the binding signal (normalized occupancy) turned out to be 0.0757.

CCCCACGG: the binding signal (normalized occupancy) came out at 0.0843.

As for ATTTGTTC, the binding signal (normalized occupancy) amounted to 0.0761.

Turning to AACAGAAT, the binding signal (normalized occupancy) was 0.0706.

For the sequence AAACTGTC, the binding signal (normalized occupancy) worked out at 0.0741.

As to GACCTGAC, the binding signal (normalized occupancy) turned out to be 0.0746.

As for GCTACTGA, the binding signal (normalized occupancy) is 0.0661.

Consider GTCGCGCA, for which the binding signal (normalized occupancy) was determined as 0.0729.

ATTTATGA: the binding signal (normalized occupancy) is 0.082.

Regarding TGAAGAAA, the binding signal (normalized occupancy) is 0.0695.

CGCCTGTC: the binding signal (normalized occupancy) stood at 0.0713.

For the sequence AGGCTCTG, the binding signal (normalized occupancy) was 0.0739.

On to CGCCGTAA, for which the binding signal (normalized occupancy) is 0.0692.

For ATGTGTTG, the binding signal (normalized occupancy) is 0.0905.

As to CATCGTTA, the binding signal (normalized occupancy) was 0.0799.

Consider ATGCTAAT, for which the binding signal (normalized occupancy) is 0.0804.

Regarding CTGAGAAC, the binding signal (normalized occupancy) was found to be 0.0768.

Take ACGATACA: the binding signal (normalized occupancy) came out at 0.0848.

As to CCATTACA, the binding signal (normalized occupancy) is 0.0823.

Consider ACATCCCA, for which the binding signal (normalized occupancy) is 0.0755.

For GATGAACC, the binding signal (normalized occupancy) is 0.0746.

In the case of GCCAGTCA, the binding signal (normalized occupancy) amounted to 0.0708.

In the case of CACCTGTC, the binding signal (normalized occupancy) was 0.0839.

For CGCTATGC, the binding signal (normalized occupancy) worked out at 0.0734.

Take GAGGGCCC: the binding signal (normalized occupancy) was 0.0675.

For AGTCTGTA, the binding signal (normalized occupancy) was found to be 0.0713.

On to GCTACGCA, for which the binding signal (normalized occupancy) was determined as 0.0704.

On to GAGTTCTA, for which the binding signal (normalized occupancy) came out at 0.0745.

Turning to CCATGTTA, the binding signal (normalized occupancy) came to 0.0847.

Take GCTCCTCA: the binding signal (normalized occupancy) came to 0.0753.

For the sequence ACTGTACT, the binding signal (normalized occupancy) was found to be 0.0787.

On to ACTCACAC, for which the binding signal (normalized occupancy) was determined as 0.087.

Regarding CGAATGAG, the binding signal (normalized occupancy) amounted to 0.0743.

AGGGTGGA: the binding signal (normalized occupancy) worked out at 0.074.

In the case of GAACGAAA, the binding signal (normalized occupancy) was determined as 0.0745.

On to TACATCCA, for which the binding signal (normalized occupancy) amounted to 0.0837.

As to ATGTGGCG, the binding signal (normalized occupancy) was found to be 0.0879.

In the case of GTACTGCA, the binding signal (normalized occupancy) came out at 0.0772.

On to CAAGAGGC, for which the binding signal (normalized occupancy) is 0.0687.

On to AAGATCGA, for which the binding signal (normalized occupancy) worked out at 0.0761.

As for TCACAAGA, the binding signal (normalized occupancy) was 0.0753.

CGCTAACG: the binding signal (normalized occupancy) worked out at 0.075.

ATCCAACG: the binding signal (normalized occupancy) amounted to 0.0771.

Regarding CGTTTGCA, the binding signal (normalized occupancy) worked out at 0.0714.

As for CGATAACC, the binding signal (normalized occupancy) worked out at 0.0756.

With GAAGGAGC, the binding signal (normalized occupancy) was found to be 0.0701.

Regarding CCTCTCAC, the binding signal (normalized occupancy) turned out to be 0.0781.

Regarding CATTTCCA, the binding signal (normalized occupancy) was determined as 0.0828.

AGGAACGG: the binding signal (normalized occupancy) is 0.0715.

Regarding TGATGTAA, the binding signal (normalized occupancy) came out at 0.083.

Take TAGGACTA: the binding signal (normalized occupancy) is 0.0732.

For the sequence CTGACTAC, the binding signal (normalized occupancy) came to 0.0771.

As for AGGCGGAG, the binding signal (normalized occupancy) worked out at 0.067.

Turning to CTTTGCCA, the binding signal (normalized occupancy) turned out to be 0.0734.

Consider CGCTTCCG, for which the binding signal (normalized occupancy) was found to be 0.0681.

On to AGCCGTCG, for which the binding signal (normalized occupancy) was determined as 0.0694.

In the case of GTGCCGAA, the binding signal (normalized occupancy) worked out at 0.0732.

With AAGAGAGG, the binding signal (normalized occupancy) amounted to 0.0745.

For the sequence AATCTCGT, the binding signal (normalized occupancy) was 0.0762.

Consider ACTCGGGG, for which the binding signal (normalized occupancy) was determined as 0.076.

Regarding CCCATGTA, the binding signal (normalized occupancy) amounted to 0.0872.

With ACCCTAAG, the binding signal (normalized occupancy) was determined as 0.0771.

In the case of GTATACAA, the binding signal (normalized occupancy) turned out to be 0.0771.

Regarding GCTGCGCA, the binding signal (normalized occupancy) was found to be 0.0685.

In the case of ACAGGACG, the binding signal (normalized occupancy) stood at 0.0725.

As to ATGTCTCA, the binding signal (normalized occupancy) came out at 0.0865.

As to AGCGCGCT, the binding signal (normalized occupancy) came to 0.0814.

With CCCACCAG, the binding signal (normalized occupancy) worked out at 0.0817.

On to GGATTTGA, for which the binding signal (normalized occupancy) stood at 0.0761.

For CGCACCAA, the binding signal (normalized occupancy) is 0.0722.

Consider AACAGCAT, for which the binding signal (normalized occupancy) is 0.087.

Take GACGATAA: the binding signal (normalized occupancy) was found to be 0.0782.

AAATCAGG: the binding signal (normalized occupancy) was 0.0754.

Consider CGACCAGA, for which the binding signal (normalized occupancy) was 0.0721.

For AGTCCGGA, the binding signal (normalized occupancy) amounted to 0.0679.

For the sequence CGTGCTCC, the binding signal (normalized occupancy) stood at 0.085.

Take CCGCGGTA: the binding signal (normalized occupancy) is 0.0727.

On to AGCATCAT, for which the binding signal (normalized occupancy) turned out to be 0.0919.

ACTTCTCC: the binding signal (normalized occupancy) worked out at 0.0715.

Consider AACGGGGC, for which the binding signal (normalized occupancy) stood at 0.0728.

Regarding CGGCTGCC, the binding signal (normalized occupancy) came to 0.0673.

For AGGGCGAG, the binding signal (normalized occupancy) amounted to 0.0742.

As for AGACTGAT, the binding signal (normalized occupancy) came to 0.0744.

Take CGAGCCGC: the binding signal (normalized occupancy) was 0.0665.

For CAAGGACA, the binding signal (normalized occupancy) was found to be 0.0835.

GCTCAAAA: the binding signal (normalized occupancy) is 0.0658.

AAACGAAT: the binding signal (normalized occupancy) is 0.0754.

Consider GTAGCGAC, for which the binding signal (normalized occupancy) came to 0.0722.

For the sequence AGGGCGCC, the binding signal (normalized occupancy) came to 0.0702.

With TCTTGCAA, the binding signal (normalized occupancy) came out at 0.0693.

Regarding GCCGCACC, the binding signal (normalized occupancy) was 0.0786.

For AACACCAG, the binding signal (normalized occupancy) worked out at 0.0711.

Turning to TAAACGGA, the binding signal (normalized occupancy) stood at 0.068.

With CGTAGACC, the binding signal (normalized occupancy) turned out to be 0.0718.

With AGTCTGCC, the binding signal (normalized occupancy) amounted to 0.0678.

As for CAACACCG, the binding signal (normalized occupancy) stood at 0.0759.

Consider CCCTGTTC, for which the binding signal (normalized occupancy) was determined as 0.0765.

With AACAGAAG, the binding signal (normalized occupancy) is 0.0776.

Regarding CAGAGCAG, the binding signal (normalized occupancy) worked out at 0.0723.

In the case of CCCATTCC, the binding signal (normalized occupancy) worked out at 0.0783.

For the sequence AATGAGCT, the binding signal (normalized occupancy) was 0.0741.

Turning to GCCGAGCA, the binding signal (normalized occupancy) is 0.0695.

Consider GCCTAGGA, for which the binding signal (normalized occupancy) was determined as 0.0702.

In the case of GCAGAAGC, the binding signal (normalized occupancy) came out at 0.0732.

For the sequence AAGCCCGA, the binding signal (normalized occupancy) was 0.0696.

With CATGTACC, the binding signal (normalized occupancy) was 0.0843.

In the case of AACGTGGC, the binding signal (normalized occupancy) came to 0.107.

For the sequence CGAACCCG, the binding signal (normalized occupancy) is 0.0667.

Turning to AATCTGAC, the binding signal (normalized occupancy) came out at 0.0748.

In the case of CTAAGAGA, the binding signal (normalized occupancy) stood at 0.0732.

AGTCAGCG: the binding signal (normalized occupancy) came out at 0.0777.

As to CCTATCAC, the binding signal (normalized occupancy) came out at 0.0808.

For GATCGCTA, the binding signal (normalized occupancy) stood at 0.0739.

GCTAAGGA: the binding signal (normalized occupancy) worked out at 0.0676.

Regarding CATGGTAG, the binding signal (normalized occupancy) came out at 0.0879.

As for GGGGTCGA, the binding signal (normalized occupancy) is 0.0803.

In the case of GACGGCAC, the binding signal (normalized occupancy) amounted to 0.0699.

For the sequence CTCTGAAA, the binding signal (normalized occupancy) was found to be 0.0744.

For CGGCACAG, the binding signal (normalized occupancy) worked out at 0.0692.

Turning to AATGAATT, the binding signal (normalized occupancy) worked out at 0.0743.

As to ACGAACGG, the binding signal (normalized occupancy) was 0.0725.

ATTCCTGC: the binding signal (normalized occupancy) is 0.0766.

CAATACAA: the binding signal (normalized occupancy) worked out at 0.079.

Consider AGCTAAGA, for which the binding signal (normalized occupancy) was determined as 0.0736.

Consider ATGATATC, for which the binding signal (normalized occupancy) is 0.0909.

Regarding CCAGTTCG, the binding signal (normalized occupancy) was 0.0685.

With ATTGCTCC, the binding signal (normalized occupancy) was determined as 0.0675.

Turning to ACGCTTTG, the binding signal (normalized occupancy) was 0.0776.

Take ACATCCAG: the binding signal (normalized occupancy) was found to be 0.0809.

As for AACAGGAA, the binding signal (normalized occupancy) amounted to 0.0715.

With CGGCTCAA, the binding signal (normalized occupancy) came to 0.0688.

Consider GATCCCAC, for which the binding signal (normalized occupancy) is 0.0777.

On to ACACACAA, for which the binding signal (normalized occupancy) was 0.0849.

For the sequence ACTCAGTG, the binding signal (normalized occupancy) amounted to 0.071.

For the sequence CGCAGCAG, the binding signal (normalized occupancy) worked out at 0.0666.

As to ATATACTG, the binding signal (normalized occupancy) was 0.0765.

Consider CAGTTCTC, for which the binding signal (normalized occupancy) was found to be 0.0708.

Consider AAGGCAAG, for which the binding signal (normalized occupancy) worked out at 0.0752.

With GTCCTAAA, the binding signal (normalized occupancy) worked out at 0.0734.

Regarding AAGTTAAG, the binding signal (normalized occupancy) is 0.0726.

In the case of AATCATTA, the binding signal (normalized occupancy) was 0.0812.

In the case of AACCTATT, the binding signal (normalized occupancy) turned out to be 0.0776.

With ATTGTCCG, the binding signal (normalized occupancy) came out at 0.0741.

AAGGCAGG: the binding signal (normalized occupancy) was 0.0753.

In the case of ACGCTGTA, the binding signal (normalized occupancy) came to 0.0841.

In the case of CTTTGTGA, the binding signal (normalized occupancy) amounted to 0.071.

Consider ATCTTCAA, for which the binding signal (normalized occupancy) was 0.072.

Take ATGAAACA: the binding signal (normalized occupancy) is 0.0788.

Regarding ACTATTCT, the binding signal (normalized occupancy) amounted to 0.0793.

Regarding CGACAACC, the binding signal (normalized occupancy) was determined as 0.0741.

As for CGGCTACG, the binding signal (normalized occupancy) was 0.0653.

GACCCGAA: the binding signal (normalized occupancy) worked out at 0.0678.

As to CTCAATTC, the binding signal (normalized occupancy) was 0.0775.

Regarding TCAATCCA, the binding signal (normalized occupancy) was 0.077.

For the sequence ATTCAGAC, the binding signal (normalized occupancy) turned out to be 0.0739.

Take ATTCGGGC: the binding signal (normalized occupancy) was 0.0757.

In the case of CTTTTCGA, the binding signal (normalized occupancy) stood at 0.0725.

Take GGGGCTTA: the binding signal (normalized occupancy) was 0.0728.

Regarding CTTCATAC, the binding signal (normalized occupancy) worked out at 0.0828.
